{"source": "paper PMC12136788", "binders": {"B1": {"name": "ENSG00000034677:stop:overlap|stop_codon|ENSG00000034677|stop_codon|NA|stop_codon (ssRNA)", "RNA": "GGGAGUUCUACAGUCCGACGAUCCAAAUAACAACCACUCACAUCAGACAAUGGAAUUAAAAGUUGCAAUUCAGACUGAAAUUUAGGCCCAUAAAUGCUGCAGAAUAAUUACCACUGUACAACCGUGUUUGGAGCUGGUUGAACCAACAGAGGAUUGAGCAUCA"}, "B2": {"name": "chr8:23843870:23844003:-|3pUTR|ENSG00000159167|msi1|total|mutant (ssRNA)", "RNA": "GGGAGUUCUACAGUCCGACGAUCAAUUCCAGAGGACUCUGCUUAAACAAAGCAGUAUAUAAUAACUUUAUUGCAUACCGAUUCCGUUUUGUAACUCCGCUUUAUUUUUCUUUUCCUGGGAAUGGAAUAACUAUCUCACUUCCACAACAGAGGAUUGAGCAUCA"}, "B3": {"name": "chr15:34978960:34979061:-|3pUTR|ENSG00000198146|msi1|FALSE|unique (ssRNA)", "RNA": "GGGAGUUCUACAGUCCGACGAUCGCCCUCUGUAUCCAUGUACUCUGCAUCUGUGGAUUAAACCAAUUGCAGAUCAAAAAUAUUAGAAAAAAUAAAAAUAAUACAAAUAAAAAUACAGUAUAACAGUUAUUUAAAUAGCAUUUACAACAGAGGAUUGAGCAUCA"}, "B4": {"name": "chr2:96875881:96876275:-|three_prime_utr|ENSG00000168754|control|control|control (ssRNA)", "RNA": "GGGAGUUCUACAGUCCGACGAUCUCGCCCACCCCUCAGCCCUCCUCCCAGCCAUCUCCUCUUCCCUAAGGCCUCUGUCUCCAUAGCUCUGGUUUCCCUGGGCCUCAGUCCUCCCCACCCUCCUUCCUCUGUCUCCCUGUCACUCAACAGAGGAUUGAGCAUCA"}, "B5": {"name": "chr1:9850293:9850394:-|3pUTR|ENSG00000178585|unk|total|mutant (ssRNA)", "RNA": "GGGAGUUCUACAGUCCGACGAUCCGGUAUCUGGCUUCCCUGGAAGCUCUCCGAGCUCUGGUGCUUCCGUCCGGUCAUUUUUUCCGAAAUGUGAAGAGGUCUGAUUGGCUGCUUAAACUGGAAAGGAUCUGUGAUUGGCUGGUUCAACAGAGGAUUGAGCAUCA"}, "B6": {"name": "ENSG00000198589:be:win_851|CDS|ENSG00000198589|bound_else_gene|NA|bound_elsewhere_windowed (ssRNA)", "RNA": "GGGAGUUCUACAGUCCGACGAUCAAGGCUUUCAACACUGUGUGAAAUUUGAUUUCAAGCCACAAAAGUGGUAUAUGGUUACCAUAGUACACAUCUAUAACCGAUGGAAGAAUAGUGAACUUCGAUGUUAUGUGAAUGGUGAGCCAACAGAGGAUUGAGCAUCA"}, "B7": {"name": "chr8:41263332:41263433:-|3pUTR|ENSG00000104332|msi1|total|mutant (ssRNA)", "RNA": "GGGAGUUCUACAGUCCGACGAUCCAGCAUGCCCGCCCCGUUACCUACCGGAGAGUUAUCCUGAUAAAUUAACCUCUCACAGUCCGUGAUCCUGUCCUUUUAACACCUUUUUUGUGGGGUUCUCUCUGACCUUUCAUCGUAAAGCAACAGAGGAUUGAGCAUCA"}, "B8": {"name": "chr6:150018333:150018855:-|three_prime_utr|ENSG00000155918|control|control|control (ssRNA)", "RNA": "GGGAGUUCUACAGUCCGACGAUCACCACCUACGGUGUAUGUCCAGCAGCCUCCAGCAGAUGAUGAUGACACCAUGGACCCAAUAGCUCAUUCACUGCCUUGAUUCCUUUUGCCAACAAUUUAACCAGUGAUUAUUCCUAACAUCAACAGAGGAUUGAGCAUCA"}, "B9": {"name": "chr10:60026297:60029826:-|three_prime_utr|ENSG00000151150|control|control|control (ssRNA)", "RNA": "GGGAGUUCUACAGUCCGACGAUCAAUGGCAUGAUUUUUUUUAUGCAAAAAGAAAAGAAAAGAAAACCACCCACAUUUUAAUUUAGCAUGAGCCAAUUUACAGAGCAUGGAAAUCACUUUCAUUUCCGGAUUGGCGCGUGUGCACAACAGAGGAUUGAGCAUCA"}, "B10": {"name": "chr13:106491723:106491923:-|3pUTR|ENSG00000125266|msi1|FALSE|unique (ssRNA)", "RNA": "GGGAGUUCUACAGUCCGACGAUCCAGACUCAGCUGCUAUACUUAUCACAUUUUAUUAAACACAGGGAAAGCAUUUAGGAGAAUAGCAGAGAGCCAAAUCUGACCUAAAAGUUGAAAAGCCAAAGGUCAAACAGGCUGUAAUUCCAACAGAGGAUUGAGCAUCA"}, "B11": {"name": "ENSG00000105894:stop:overlap|stop_codon|ENSG00000105894|stop_codon|NA|stop_codon (ssRNA)", "RNA": "GGGAGUUCUACAGUCCGACGAUCCCAAACCUCAAGAGAAGGGAAAAUGGAGACACAGGAGUGGGGAGAGUUUGAGAAGAUGGUAGAGAGGAGUGUUUGGGUGAAGGGAGAUGGAUUCGUCUACUGAUGCAACUGCAGAAUCUACAACAGAGGAUUGAGCAUCA"}, "B12": {"name": "chr1:232398519:232398625:-|3pUTR|ENSG00000116991|unk|FALSE|unique (ssRNA)", "RNA": "GGGAGUUCUACAGUCCGACGAUCACAGUAGUUUUAUUUCCACAGCCACAUUACCAUAGCAAUAAGAAAGGAGGCAUAGUACAUAGUUGGAAAAGCUUUGUGGGGGGAUUAAAAAAAAAAAAAAGCACUGUUGUGUUUAACACUCAACAGAGGAUUGAGCAUCA"}, "B13": {"name": "ENSG00000163346:stop:overlap|stop_codon|ENSG00000163346|stop_codon|NA|stop_codon (ssRNA)", "RNA": "GGGAGUUCUACAGUCCGACGAUCAGAGCCUGCCUUCAACCCCCAAAGCAGUCACCUCACUGCCCUGUCCCUGUCCUUUCCCCUAGCUUGGAUCAGGGAGGAGGGCCGCUGCUCCAGCAGUGACGAUGACACCGACGUGGACAUCAACAGAGGAUUGAGCAUCA"}, "B14": {"name": "chr17:35577220:35577322:-|CDS|ENSG00000108733|unk|total|mutant (ssRNA)", "RNA": "GGGAGUUCUACAGUCCGACGAUCUCUAUUAUGUUCCUGGUUCUUCUUCCCUAUCUGAAAGUGAAGCUGGAGAAGCUGGUUUCCCGCCUGAGAGAAGAGGAUGAAUAUUCUAUUCAUCCCCCUUCUUCCCGCUGGAAACGAUUUCAACAGAGGAUUGAGCAUCA"}, "B15": {"name": "chr7:157269180:157269282:+|3pUTR|ENSG00000009335|unk|FALSE|unique (ssRNA)", "RNA": "GGGAGUUCUACAGUCCGACGAUCAUUUUAGGUUGUUUUAUGUUGAAUGUUCUAUAUCUUAUUAGUUAAUUUGUAUAUUUUAUUAGUAUUUUGGAAAUAGCAUAUCUGAGACUGAAGAGAAAUUGACAAUUCACUUAUUUGUGGCAACAGAGGAUUGAGCAUCA"}, "B16": {"name": "chr4:56809860:56810169:-|three_prime_utr|ENSG00000128040|control|control|control (ssRNA)", "RNA": "GGGAGUUCUACAGUCCGACGAUCCCCUGCUGAUGGAGCAGUUUACAGAAAAGAAGAUGGAGAGACCACCUUCACUGGCAGACUAGAUAAAUUGCAUUUCCCCUUUUUCUCUUUUCCUGUGUUUCUUUACAUGAGAUUUGUUAACAACAGAGGAUUGAGCAUCA"}, "B17": {"name": "chr13:106491261:106491362:-|3pUTR|ENSG00000125266|msi1|FALSE|unique (ssRNA)", "RNA": "GGGAGUUCUACAGUCCGACGAUCACAAUAAUGAGAGCAAAUGCAAAAAUAACCAAGUCCUCCGAAGGCAUCUCACGGAACCGUAGACUAGGAAGUACGAGCCCCACAGAGCAGGAAGCCGAUGUGACUGCAUCAUAUAUUUAACAACAGAGGAUUGAGCAUCA"}, "B18": {"name": "ENSG00000143401:stop:overlap|stop_codon|ENSG00000143401|stop_codon|NA|stop_codon (ssRNA)", "RNA": "GGGAGUUCUACAGUCCGACGAUCGUCUUCGAGGGGAGAAGAGGAAACGAGAUGCUGAAGACGAUGGAGAGGAAGAAGAUGACUAGAUCAUUCUAAGACCAGAUUCUCUAAUGUUUCUGGGUGUGCAAUAGAGUGAUCACAUCUCAACAGAGGAUUGAGCAUCA"}, "B19": {"name": "chr4:78448087:78448188:+|CDS|ENSG00000138759|msi1|FALSE|unique (ssRNA)", "RNA": "GGGAGUUCUACAGUCCGACGAUCGCCUCUGGAGAAUGGGAGAGUUUUAGUCCAGGGCUCAACCUUCACCUACCAGGAUAUCCUAGCUGGGCUGGUUGGGUAUGUGCCUAGUGUCCCUGGCAUGGUCGUGGAUGAGUUCCAGUUCAACAGAGGAUUGAGCAUCA"}, "B20": {"name": "chr3:120395571:120395798:-|3pUTR|ENSG00000163430|msi1|total|mutant (ssRNA)", "RNA": "GGGAGUUCUACAGUCCGACGAUCUGGUUCUGAUCAUUGGUCCAGAGGGGAGACCGGUUCCUGUGAUUUUUCCUUCUUCUCUACCGAAUAAAUGAAAUCUUGUUACCCGAACAAGAAAUGUCAGAUGGCCAAAAACAAGAUGACCAACAGAGGAUUGAGCAUCA"}, "B21": {"name": "chr11:27366961:27367062:-|3pUTR|ENSG00000205213|msi1|total|mutant (ssRNA)", "RNA": "GGGAGUUCUACAGUCCGACGAUCUGAAUACUUCCUAAUAUCGUUGGCUCUACUAAUAUUUUCCAAUUUGCUGGGAUGUCACCCCGCAACCGCUUGGAUUAUACCGAAAGUAAACUGUGGUCAAUACUUGCAUUUAAUCCGACGCAACAGAGGAUUGAGCAUCA"}, "B22": {"name": "chr11:613205:613595:-|three_prime_utr|ENSG00000185507|control|control|control (ssRNA)", "RNA": "GGGAGUUCUACAGUCCGACGAUCCUGCACGUUCCUAUACGGCCCCCCAGACCCAGCUGUCCGGGCCACAGACCCCCAGCAGGUAGCAUUCCCCAGCCCUGCCGAGCUCCCGGACCAGAAGCAGCUGCGCUACACGGAGGAACUCAACAGAGGAUUGAGCAUCA"}}, "note": "The list shows a part of the results."}
{"target": "MSI1 full-length (mouse, UniProt Q61474 1-362)", "sequence (Q61474 whole entry)": "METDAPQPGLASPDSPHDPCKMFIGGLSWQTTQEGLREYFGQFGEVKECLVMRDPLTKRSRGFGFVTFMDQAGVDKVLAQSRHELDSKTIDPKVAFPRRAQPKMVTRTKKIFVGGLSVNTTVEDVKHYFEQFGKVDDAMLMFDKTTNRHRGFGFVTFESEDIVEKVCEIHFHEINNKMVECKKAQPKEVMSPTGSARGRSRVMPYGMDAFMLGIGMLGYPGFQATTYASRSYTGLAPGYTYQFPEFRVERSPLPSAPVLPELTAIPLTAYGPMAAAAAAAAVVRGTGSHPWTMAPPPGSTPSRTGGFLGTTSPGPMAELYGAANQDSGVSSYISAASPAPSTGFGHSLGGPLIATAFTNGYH", "experiment": "nsRBNS (natural sequence RNA bind-n-seq); RBNS binding buffer (assumed for nsRBNS): 25 mM Tris pH 7.5, 150 mM KCl, 3 mM MgCl2, 0.01% Triton X-100, 500 ug/ml BSA, 20 U/ml SUPERase-In, 4 C; UNK is unkempt and MSI1 is Musashi-1; names of the RNAs are library labels; protein concentration not given here; high values mean tight binding", "units": {"binding signal": "enrichment R"}}
{"binder": "B1", "binding signal": 0.506}
{"binder": "B2", "binding signal": 0.46}
{"binder": "B3", "binding signal": 14.7}
{"binder": "B4", "binding signal": 1.39}
{"binder": "B5", "binding signal": 0.339}
{"binder": "B6", "binding signal": 0.419}
{"binder": "B7", "binding signal": 0.727}
{"binder": "B8", "binding signal": 0.42}
{"binder": "B9", "binding signal": 0.263}
{"binder": "B10", "binding signal": 3.84}
{"binder": "B11", "binding signal": 0.516}
{"binder": "B12", "binding signal": 18.4}
{"binder": "B13", "binding signal": 0.512}
{"binder": "B14", "binding signal": 0.307}
{"binder": "B15", "binding signal": 12.7}
{"binder": "B16", "binding signal": 0.55}
{"binder": "B17", "binding signal": 1.47}
{"binder": "B18", "binding signal": 0.54}
{"binder": "B19", "binding signal": 1.33}
{"binder": "B20", "binding signal": 0.289}
{"binder": "B21", "binding signal": 0.259}
{"binder": "B22", "binding signal": 0.649}
